Source: the RNAGym collection of RNA variant scans (doi:10.7554/elife.90254)
Read counts are not given, so values of variants with three or more changes are uncertain.

B1: LINE1-mini (parent)
chain: GGCAGAGCUCAACACAGCGUGGCAAAGUGGCUGUGGCUAGACUGCC

Variants of: B1
Assay: self-cleavage, relative activity (ratio to wild type); higher = more cleavage; in vitro, sequencing; the parent is a self-cleaving ribozyme

| Variant | self-cleavage |
| --- | --- |
| G5A G19A C45U | 0.09 |
| G1A G27C C31U | 0.18 |
| G5U U20G A25G | 0.09 |
| A26C G30C G35U | 0.11 |
| A14G C37U C42U G44A | 0.12 |
| G1U C10U A25C | 0.02 |
| C3A U32A G36U | 0.28 |
| G5U A25C G40C | 0.03 |
| G5A A12G C31U G36U | 0 |
| C15U A26C U32C G36U C42G | 0.07 |
| U9A A14U G30U U34A C42U | 0.01 |
| A12C C15U G19A G27A | 0.03 |
| C8A U9G C15A C18A | 0.05 |
| G2U G7A C23G C45U | 0.06 |
| G5U A6U C13G U38A C45A | 0.05 |
| C8U C13U C15A G30U | 0.13 |
| C10G G19A A25C A41U | 0.02 |
| A16G G27U C46U | 0.18 |
| C10A A12C G22U C42A | 0.02 |
| G5U C18G G19C G30A C45G | 0.05 |
| A11G A16G A26U G35U C37U | 0.02 |

| Variant | self-cleavage |
| --- | --- |
| C10U G29U G35C U43A | 0.03 |
| G2A C10G C23G G27U | 0.07 |
| G27U G36U U38A | 0.02 |
| A11G U28A C45U | 0.05 |
| G7A C10G A25U U28C | 0.02 |
| G29U G30A U34G G35A | 0.03 |
| C18U G19U A24C C37U | 0.02 |
| G7C G21A C23G | 0.08 |
| U9G G17A A25G G44A | 0.02 |
| A24C G29A U32A G40A | 0.03 |
| G2U G19U G33C G40A | 0.02 |
| G2U A16G G19U | 0.06 |
| G5C A14U C18G C31A U43A C45U | 0.04 |
| G2A A24C C31A G35A A41U G44U C46A | 0.01 |
| A4U C10A U20A G29C | 0.02 |
| G17U U38A U43G | 0 |
| A6G A24G G40U | 0.04 |
| G2C U20A A26U | 0.08 |
| G1C G5A U28C A39G | 0.03 |
| G17U A26C G35U | 0.02 |
| C13A G17U G29U | 0.34 |

| Variant | self-cleavage |
| --- | --- |
| U20G C37U U38A | 0.04 |
| A6G U20C A26C G27A G29U | 0.03 |
| G5U G7U C42G | 0.01 |
| G21C C23A G40U | 0.18 |
| A12C G35U U38C | 0 |
| C3U C10A A11U U38A | 0 |
| G5U A14C G44U | 0.02 |
| G1U C15A U34C | 0.09 |
| G17A G21U G30U | 0.12 |
| G5U G19U G35U C42G | 0.03 |
| G1U G21A G30C A41C | 0 |
| A4G C15A G30A | 0.08 |
| C3G C15U C45A | 0.27 |
| G2A C3U G5A G29A G44C | 0.08 |
| A12U G21U C31A | 0.03 |
| G5A C23U G29A A41U C46U | 0.04 |
| C3A A24C G33C | 0.11 |
| A4G C8U G17C U20A C46U | 0.05 |
| A12G C13U U34A | 0.07 |
| G5U A6U C10G G19U | 0.01 |
| C10G U32G C46A | 0.04 |

| Variant | self-cleavage |
| --- | --- |
| A26G G29C C31U U34C | 0.06 |
| C3G C18A G44U C46A | 0.08 |
| C15U A25U C37A | 1.24 |
| A12U C13U C15G A39C | 0.05 |
| A4U G5A A6U G7U A26C G27U A41C | 0.07 |
| C10A G19A U28G | 0.14 |
| G21U A26U G44C | 0.25 |
| G1U C8U C15U A26G | 0.1 |
| A16U C23G G36U | 0.05 |
| A6U G17U U20C G22A G27C G30U | 0.78 |
| C3A C10U A16U G35A | 0.05 |
| G5A C10A G17A G30C G35C | 0.01 |
| G7A G19U A25U | 0.05 |
| A26C G36U A39G C42A | 0 |
| C3A A12G C23U C31U U38A A41G | 0.44 |
| C8U A11C C15U U28G G30A U34G G36A | 0.01 |
| G27C U32A G35C | 0.05 |
| C3G G21A G35U U38G C45G | 0.03 |
| C3A G5U C46U | 0.09 |
| A4U G27U G30U C31U G33U | 0.07 |
| A11U A14G A16C U34A | 0.02 |
